Consider 43 compounds from ChEMBL document CHEMBL4888484, “Replenishing the malaria drug discovery pipeline: Screening and hit evaluation of the MMV Hit Generation Library 1 (HGL1) against asexual blood stage Plasmodium falciparum ,using a nano luciferase reporter read-out” (2022).

The campaign covered roughly 150,000 compounds. About 540 (0.36%) showed an effect of 50% or more. The list shows a part of the results.

The term % Inhibition denotes the relative decrease from the control value, in per cent.

For the test, the system named is Plasmodium falciparum. In words: Primary screen in NF54 nanoGlo assay, in single point, at 2uM, 72h; a lower Z score goes with more inhibition. The conditions noted are these: timepoint 72 hour. It counts as functional, Erythrocyte.
Turning to `CC[C@](C)(NCC(=O)Nc1cccc(Br)c1)C(F)(F)F`, the “% Inhibition” value worked out at 0% and the Z score amounted to 0.03.
Regarding `CC(=O)Nc1ccc(NC(=O)[C@H](C)Nc2ccc3c(c2)OCCO3)cc1`, the “% Inhibition” value came to 1% and the Z score is given as -0.18.
On the same counts, the results for `O=C(CN1CCN(c2cccc(Cl)c2)C1=O)NCC(F)(F)F` are 24% and -2.7.
With `CCN(CC)C(=O)N1C[C@@H](Oc2ccccc2)C[C@H]1C(=O)N1CCOCC1`, the “% Inhibition” value is recorded as -7% and the Z score was 0.88.
The matching figures for `CCN1CC[C@H](C(=O)N(Cc2cccc(C)c2)C(C)C)C1`: -14% and 1.99.
With `O=C1CCCc2nc(NC(=O)C3(C(F)(F)F)CCCC3)sc21`, the “% Inhibition” value is -11% and the Z score is reported as 1.37.
Turning to `COc1ccc(-c2nc(Cn3ccnc3)c(C)o2)c2ccccc12`, the “% Inhibition” value was -10% and the Z score is 0.96.
The matching figures for `Cc1ccc(CCC(C)NC(=O)C(C)n2cncn2)o1` (stereo unspecified): -5% and 0.52.
As to `CCCc1cc2c(cc1NC(=O)c1ccc3ccccc3c1OC)OCO2`, the “% Inhibition” value is -8% and the Z score is given as 0.91.
The matching figures for `Cc1ccc(C)c(S(=O)(=O)NCCNC(=O)c2ccnc(C)n2)c1`: -1% and 0.19.
For `CCCn1cc(-c2ccncc2)cc1C(=O)N1CCCCCC1`, the “% Inhibition” value is -2% and the Z score was 0.19.
The matching figures for `CCOc1ccc(S(=O)(=O)NC[C@H]2CCN(C3CC3)C2)c(C)c1`: -7% and 1.05.
With `COc1cnc(C(=O)N2CCc3[nH]c4ccc(OC(F)(F)F)cc4c3C2)cc1O`, the “% Inhibition” value is reported as 6% and the Z score is on record as -0.82.
The matching figures for `CCC(C)N(C)C(=O)C(C)NC(=O)C1CCC1` (stereo unspecified): -13% and 1.68.
The matching figures for `Nc1ccc2c(N3CCC(Cc4ccccn4)CC3)ncnc2n1`: 5% and -0.62.
The matching figures for `O=C(NCCCC1(C2OCCO2)CCOCC1)Nc1cccc(-c2nnco2)c1`: -6% and 0.82.
Take `Cc1cccc(CS(=O)(=O)Nc2ncn(Cc3ccncc3)n2)c1`: the “% Inhibition” value is -4% and the Z score is listed as 0.74.
Consider `Cc1cc(C)nc(N2CCC[C@@]3(CCC(=O)N(CCc4c[nH]cn4)C3)C2)n1`, for which the “% Inhibition” value is -2% and the Z score is recorded as 0.49.
On the same counts, the results for `Cc1cccc(N(C)S(=O)(=O)c2c(-c3ccccc3)csc2C(=O)n2nc(C)cc2C)c1` are -3% and 0.26.
On the same counts, the results for `CCN(CC)C(=O)[C@H]1CCCN(c2ncnc3c2sc(=S)n3-c2ccccc2)C1` are -2% and 0.39.
The matching figures for `CCOc1ccc(-c2cncnc2)cc1C(N)=O`: -25% and 2.33.
Regarding `Cc1ccc(C)c(OCCN(C)C(=O)CCc2cc3n(n2)CCCNC3)c1`, the “% Inhibition” value is -1% and the Z score was determined as 0.1.
On the same counts, the results for `COc1ccc(C(C)=O)cc1CN(C[C@H]1CCOC1)C1CC1` are -4% and 0.74.
The matching figures for `Cc1oc(-c2ccccc2)nc1Cc1noc(Cc2ccc(F)cc2)n1`: 8% and -1.09.
As for `Cc1ncc(C(=O)NC2CC2)c(=O)n1CC(=O)Nc1ccccc1Cl`, the “% Inhibition” value stood at 5% and the Z score is recorded as -0.75.
On the same counts, the results for `C[C@@H]1Oc2ccc(NC(=O)Cc3cnn(-c4ccccc4)c3)cc2NC1=O` are -11% and 1.7.
The matching figures for `CN(C)c1nn(C[C@H](O)c2cccc(F)c2)c(=S)s1`: -19% and 2.64.
The matching figures for `Cc1nc(O)cc(CCNc2nc3c(s2)c(C)nn3C)n1`: 3% and -0.66.
`CN(C)CCOc1cc(C(=O)N2Cc3ccccc3C2)ccn1`: the “% Inhibition” value was -18% and the Z score is listed as 2.01.
The matching figures for `CCOCCC(=O)N1C[C@H](C)OCC1(C)C`: -4% and 0.37.
On the same counts, the results for `CN1CCN([C@@H]2/C(=N\C(C)(C)C)N(c3ccccc3)C(=O)C23CCCCC3)CC1` are -34% and 3.96.
Consider `CCN1C(=O)C[C@](CC(=O)N(C)Cc2ccc3nccnc3c2)(c2cccc(C(F)(F)F)c2)C1=O`, for which the “% Inhibition” value is recorded as 15% and the Z score is reported as -1.84.
On the same counts, the results for `Cc1noc(OCC(=O)NC2CCCC2)n1` are -8% and 1.5.
Turning to `Cc1c(Br)c(C(F)(F)F)nn1CC(=O)N1CC[C@H](c2nc(C3CCOCC3)no2)C1`, the “% Inhibition” value is reported as -14% and the Z score is given as 1.77.
The matching figures for `COC[C@@H]1CN(c2cnccn2)C[C@H]1C(=O)NCC(F)(F)F`: -12% and 1.77.
Take `CC(C)c1nc(CNC(=O)N2CC[C@H](CS(N)(=O)=O)C2)cs1`: the “% Inhibition” value is reported as -11% and the Z score was 2.1.
The matching figures for `CCC(OC1CCCC1)C(=O)N1CCCCC1C(C)C` (stereo unspecified): -8% and 1.31.
The matching figures for `Cc1cccc2sc(OC3CN(S(=O)(=O)c4ccc5c(c4)OCCO5)C3)nc12`: -4% and 0.49.
The matching figures for `CCn1c(CC2CCNCC2)nn(C/C=C/c2ccccc2)c1=O`: -7% and 0.98.
As to `NC1CCC2(CC1)C[C@@H]2C(=O)NCc1nccc2c1CCCC2` (stereo partly specified), the “% Inhibition” value worked out at 1% and the Z score is on record as -0.26.
On the same counts, the results for `O=S(=O)(NCCN1CCC(c2cccs2)CC1)C1CC1` are 1% and -0.17.
The matching figures for `Cc1cnc(C)c(N2CC(O)(c3cnnn3C)C2)n1`: -16% and 2.66.
The matching figures for `N#Cc1cccc(C#N)c1N1CCC[C@H](n2ccc(C(F)(F)F)n2)C1`: -11% and 1.08.
